Test results as given in the supplement of paper PMC10369915.
This is one part of the list. Rule as the data show it: active = 3.2 or more and inactive = the rest. Only a few entries rise above the background.

How the values were obtained:
Test in all cases: enrichment score (SH2-bound / input frequency) (ratio); bacterial display of known human phosphotyrosine sites (pTyr-Var adds point mutants) read by sequencing; higher = stronger binding; tyrosines were phosphorylated by kinases first
Settings in all cases: peptide library: pTyr-Var
[1] = biological target: SHP2 C-SH2 domain E139D
[2] = biological target: SHP2 C-SH2 domain wild-type
[3] = biological target: SHP2 N-SH2 domain L43F
[4] = biological target: SHP2 N-SH2 domain T42A
[5] = biological target: SHP2 N-SH2 domain T52S
[6] = biological target: SHP2 N-SH2 domain wild-type

Measured: enrichment score
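Also: displayed peptides selected on beads carrying the immobilized SH2 domain, with library peptides lacking any tyrosine serving as negative controls.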

ESMLRYEVFGG [STOX1_Y607_YF]
inactive: [1] 0.935 | [2] 1.03 | [3] 0.762 | [4] 1.14 | [5] 0.979 | [6] 0.947

LRYDVYGGENE [STOX1_Y610_E608D]
inactive: [1] 0.958 | [2] 0.732 | [3] 0.924 | [4] 0.837 | [5] 0.912 | [6] 1.24

RIFDYYSARKA [STOX1_Y858]
inactive: [1] 0.602 | [2] 0.58 | [3] 0.489 | [4] 0.457 | [5] 0.52 | [6] 0.472

RIFDFYSARKT [STOX1_Y858_A863T_YF]
inactive: [1] 1.12 | [2] 0.763 | [3] 0.882 | [4] 0.644 | [5] 0.984 | [6] 0.886

RIILLYIFLKN [STXBP1_Y411]
inactive: [1] 2.39 | [2] 1.82 | [3] 1.98 | [4] 2.17 | [5] 2.14 | [6] 1.99

AAVPAYDKIRV [STXBP2_Y401]
inactive: [1] 0.877 | [2] 0.949 | [3] 0.681 | [4] 1.11 | [5] 0.518 | [6] 0.905

PVRIAYDRPRG [SUGP2_Y985]
inactive: [1] 0.411 | [2] 0.244 | [3] 0.342 | [4] 0.36 | [5] 0.344 | [6] 0.386

SYCYRYRCAAR [SUMF1_Y344]
inactive: [1] 0.211 | [2] 0.317 | [3] 0.185 | [4] 0.127 | [5] 0.331 | [6] 0.14

SYCYRYRCAPR [SUMF1_Y344_A348P]
inactive: [1] 0.236 | [2] 0.2 | [3] 0.152 | [4] 0.187 | [5] 0.264 | [6] 0.184

SFCFRYCCAAR [SUMF1_Y344_R345C_YF]
inactive: [1] 0.816 | [2] 0.558 | [3] 0.639 | [4] 0.667 | [5] 0.672 | [6] 0.518

SYCYRYRCAAQ [SUMF1_Y344_R349Q]
active: [1] 4.59 | [2] 3.44 | [3] 3.59 | [4] 3.6 | [5] 4.06 | [6] 3.43

SFCFRYRCAAW [SUMF1_Y344_R349W_YF]
inactive: [6] 2.86
active: [1] 5.02 | [2] 3.4 | [3] 3.88 | [4] 3.46 | [5] 3.78

SFCFRYRCAAR [SUMF1_Y344_YF]
inactive: [1] 0.295 | [2] 0.258 | [3] 0.263 | [4] 0.331 | [5] 0.244 | [6] 0.249

HCHEGYILHGA [SVEP1_Y2921]
inactive: [1] 2.11 | [2] 2.02 | [3] 2.24 | [4] 1.95 | [5] 1.94 | [6] 1.56

HCHEGYVLHGA [SVEP1_Y2921_I2922V]
inactive: [1] 1.9 | [2] 1.95 | [3] 2.18 | [4] 1.6 | [5] 1.72 | [6] 1.64

GESKDYALHAG [SVIL_Y185_V189A]
inactive: [1] 0.499 | [2] 0.525 | [3] 0.537 | [4] 0.447 | [5] 0.437 | [6] 0.473

FSAGTYPRMEE [SYCN_Y108_L111M]
inactive: [1] 0.846 | [2] 0.867 | [3] 0.678 | [4] 0.617 | [5] 0.712 | [6] 0.719

EYLQKYKGFKI [SYNE1_Y6953]
inactive: [1] 0.53 | [2] 0.723 | [3] 0.556 | [4] 0.504 | [5] 0.575 | [6] 0.751

VLNDAYENLTR [SYNE2_Y3255]
inactive: [1] 1.31 | [2] 1.31 | [3] 1.59 | [4] 1.05 | [5] 1.37 | [6] 1.25

VLNHAYENLTR [SYNE2_Y3255_D3253H]
active: [1] 3.39 | [2] 3.38 | [3] 3.48 | [4] 3.99 | [5] 3.82
inactive: [6] 3.2

SDVCMYRKNTF [SYNE2_Y570_I574T_YF]
inactive: [1] 0.552 | [2] 0.933 | [3] 0.696 | [4] 0.694 | [5] 0.657 | [6] 0.886

FRKNIYNVKST [SYNE2_Y575_YF]
inactive: [1] 0.753 | [2] 0.433 | [3] 0.601 | [4] 0.469 | [5] 0.684 | [6] 0.6

REVPVYIGEDS [SYNM_Y460]
inactive: [1] 1.16 | [2] 1.04 | [3] 0.904 | [4] 1.11 | [5] 0.804 | [6] 0.851

APGDAYGDAGY [SYP_Y250]
inactive: [1] 0.481 | [2] 0.386 | [3] 0.319 | [4] 0.389 | [5] 0.427 | [6] 0.413

APGNAYGDAGF [SYP_Y250_D248N_YF]
inactive: [1] 0.588 | [2] 0.455 | [3] 0.627 | [4] 0.434 | [5] 0.527 | [6] 0.491

GYQPDYGQPAG [SYP_Y278]
inactive: [1] 0.585 | [2] 0.545 | [3] 0.45 | [4] 0.464 | [5] 0.502 | [6] 0.567

GYQPEYGQPAG [SYP_Y278_D277E]
inactive: [1] 0.566 | [2] 0.585 | [3] 0.528 | [4] 0.469 | [5] 0.582 | [6] 0.707

GFQPDYGQPAG [SYP_Y278_YF]
inactive: [1] 0.72 | [2] 0.514 | [3] 0.573 | [4] 0.434 | [5] 0.666 | [6] 0.603

EVEFQYPFRLH [SYP_Y73_E72Q]
inactive: [1] 0.87 | [2] 0.731 | [3] 0.801 | [4] 0.646 | [5] 0.859 | [6] 0.75

VTVLDYDKTGK [SYT1_Y365_I368T]
inactive: [1] 0.87 | [2] 0.555 | [3] 0.572 | [4] 0.759 | [5] 0.793 | [6] 0.854

GFSDPYVKASL [SYT3_Y470]
inactive: [1] 0.85 | [2] 0.729 | [3] 0.994 | [4] 0.586 | [5] 0.71 | [6] 0.953

GFSDPYVKAFL [SYT3_Y470_S474F]
inactive: [1] 1.01 | [2] 0.99 | [3] 0.74 | [4] 0.948 | [5] 0.886 | [6] 0.852

FEEVVYQAMEE [TACC3_Y684]
inactive: [1] 0.847 | [2] 0.883 | [3] 0.963 | [4] 0.747 | [5] 0.806 | [6] 1.08

SSPQLYLVPFL [TAF4_Y652_P651L]
inactive: [1] 1.3 | [2] 1.05 | [3] 1.61 | [4] 1.4 | [5] 1.56 | [6] 1.28

VRFTEYETQVK [TARDBP_Y155]
inactive: [1] 0.849 | [2] 1.11 | [3] 0.88 | [4] 0.931 | [5] 0.745 | [6] 1.01

VRFMEYETQVK [TARDBP_Y155_T153M]
inactive: [1] 1.19 | [2] 1.14 | [3] 1.29 | [4] 1.01 | [5] 0.959 | [6] 1.05

LSAPEYGPKLK [TBC1D14_Y46]
inactive: [1] 0.726 | [2] 0.506 | [3] 0.679 | [4] 0.597 | [5] 0.67 | [6] 0.615
